Measurements taken from the supplement of paper PMC3334620.
Over roughly 33,000 sequences, “E-score (-0.5 to 0.5)” has its median near -0.016; the highest 2% begin near 0.32. This is one part of the list.

biological target: T1, Stp1 (UniProt B3LFK1); experiment: PBM E-score (8-mer binding enrichment) (E-score (-0.5 to 0.5)); higher = stronger / more preferred TF binding; most listed sequences are background and not binding sites; conditions: protein concentration: 200 nM; construct: GST-full length
T1 sequence: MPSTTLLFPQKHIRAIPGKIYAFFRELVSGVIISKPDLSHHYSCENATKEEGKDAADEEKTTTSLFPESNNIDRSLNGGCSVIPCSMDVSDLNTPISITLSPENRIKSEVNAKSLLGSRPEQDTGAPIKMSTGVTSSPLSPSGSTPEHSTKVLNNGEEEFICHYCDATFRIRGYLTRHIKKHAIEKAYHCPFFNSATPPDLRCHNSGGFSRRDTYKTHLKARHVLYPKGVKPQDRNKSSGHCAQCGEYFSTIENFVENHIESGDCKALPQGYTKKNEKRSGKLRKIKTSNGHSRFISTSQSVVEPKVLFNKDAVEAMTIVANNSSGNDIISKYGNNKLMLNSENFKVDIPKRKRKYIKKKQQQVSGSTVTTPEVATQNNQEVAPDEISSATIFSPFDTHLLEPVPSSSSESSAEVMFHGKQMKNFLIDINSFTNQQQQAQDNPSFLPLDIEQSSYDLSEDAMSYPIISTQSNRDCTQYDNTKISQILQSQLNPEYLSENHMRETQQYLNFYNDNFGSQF
Summary of the method: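 The E-score, a modified Wilcoxon-Mann-Whitney statistic, was computed by the Universal PBM Analysis Suite for every ungapped eight-base word pooled with its reverse complement. Scans behind it were normalised with masliner after bound GST-tagged yeast transcription factors were detected with fluorescent anti-GST. The proteins, at about 100-200 nM, had been applied to universal all-10-mer Agilent arrays made double-stranded by primer extension.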

Row | Sequence | PBM E-score
1 | AAAGCCGT | 0.386
2 | CTGAATGA | 0.0815
3 | AGTGCCCG | 0.0388
4 | CTGCGCTC | -0.214
5 | GCAAGTGC | -0.00995
6 | ATAGAAGG | -0.021
7 | AGCCCCTG | -0.353
8 | AACCCTAA | -0.0589
9 | GACGTCAA | 0.0184
10 | ACGCGTCT | -0.112
11 | AACGGCGC | 0.477
12 | GTCTTTTA | -0.0416
13 | CGTCCGAA | 0.142
14 | CACGGCAG | 0.428
15 | CGTCAGAC | -0.0993
16 | AGATTTTC | 0.0728
17 | ATGATGTG | -0.0485
18 | ATAGGTCC | 0.0708
19 | AACGTAAA | 0.1
20 | GCTTTTAC | 0.0167
21 | GTGAACGA | -0.0319
22 | GACCTAGC | -0.193
23 | GCGGTTAA | -0.0125
24 | CTCGTGAA | -0.0319
25 | CCATCGGA | -0.275

Row | Sequence | PBM E-score
26 | CACGAGAA | -0.0867
27 | GCATAACA | 0.00106
28 | CGATCGAG | 0.0366
29 | ATTGATGC | 0.221
30 | ACGGTTTA | -0.202
31 | ACTTATCT | -0.039
32 | AGAGGCCG | -0.0748
33 | ATATAAAA | 0.227
34 | CCGGCACA | 0.106
35 | GTTGTTTA | 0.0594
36 | AGGCCAAC | -0.113
37 | CGAGACAC | -0.142
38 | CAGACCGG | -0.211
39 | GCATGGAC | 0.0237
40 | CTGAATCA | -6e-05
41 | ATAAACGA | 0.294
42 | CAACGACG | 0.155
43 | AGCGTGTG | -0.00716
44 | ACGAAGTC | -0.16
45 | ACACTCAT | 0.123
46 | GCGGCCGC | 0.373
47 | CCCTAATC | -0.233
48 | CATGCCCA | -0.249
49 | ACGAAAGG | 0.0262
50 | ACTCTAGA | -0.0596

Row | Sequence | PBM E-score
51 | ATCTTGGA | -0.00943
52 | GAGATGCA | -0.166
53 | ATGCTGGG | -0.279
54 | GCTCACAC | -0.0506
55 | GGTACGAA | 0.128
56 | AGGCGAAT | 0.172
57 | CAGAGAAA | 0.0637
58 | ATCGTGTC | 0.0255
59 | AATTTACG | 0.206
60 | ACCAGTCG | -0.013
61 | AAGTCGGC | -0.0738
62 | AAACAATC | 0.132
63 | ACGTGAGG | -0.0422
64 | ATTAATGA | 0.156
65 | ATCAGAGG | -0.046
66 | ATACATGG | -0.176
67 | CAATCCCA | -0.303
68 | CGCTTGAA | 0.189
69 | ATCTTTAA | 0.295
70 | ACTTATAT | 0.154
71 | ACAGGCGT | -0.16
72 | AAGGAGCC | -0.0111
73 | AAACTTTC | 0.0425
74 | AGGGGCGC | 0.232
75 | CAAAGCAG | 0.0482

Row | Sequence | PBM E-score
76 | CAAGATTA | 0.0711
77 | CTTGTCTC | -0.0924
78 | CCATGCTC | -0.257
79 | CTCTGTGC | -0.12
80 | CAAAAGAA | 0.314
81 | AAAGCCCC | -0.112
82 | CGGTGTTC | -0.0565
83 | AGGAGGAG | -0.251
84 | CTTTGATA | 0.171
85 | ATTGTTTC | 0.159
86 | CCCGAGGA | -0.157
87 | ATGTCAGG | -0.141
88 | CAACTGTA | -0.124
89 | CCACTTCG | -0.0462
90 | AGTACACA | 0.0936
91 | GCTTTCGA | -0.0886
92 | CACCTAAC | -0.0743
93 | CTGGTTTA | 0.0191
94 | TCTCGACA | -0.00032
95 | ATTTGCTC | 0.0345
96 | AGATTGTG | -0.0811
97 | ATTGCTCA | 0.0301
98 | CAATCCGG | -0.0143
99 | CAGCTACC | -0.269
100 | AGAGAAAG | -0.196

Row | Sequence | PBM E-score
101 | GCTGAAGA | -0.231
102 | AACAGCTG | -0.0541
103 | AACTGCAC | 0.0976
104 | TCCCGTAA | -0.0808
105 | CGACGCAG | -0.0856
106 | ACTTCCTC | -0.169
107 | CAGCCCTG | -0.194
108 | CTGGATTC | -0.106
109 | ATACCTCA | -0.0658
110 | ATTACAAC | -0.0195
111 | TAAAGGTA | -0.123
112 | CTTTGATC | -0.121
113 | CACTAAAG | 0.0173
114 | AAGACAAA | 0.119
115 | CAGCGGAC | -0.123
116 | ACATAGAA | 0.0341
117 | ATTTTCAA | 0.124
118 | CGCAACAG | 0.00887
119 | CCCACTTA | 0.18
120 | CCAGATCG | -0.0382
121 | CGTTCCGC | 0.268
122 | CAAACTAC | -0.132
123 | AGCTGCCA | -0.00458
124 | GCTCCCAC | -0.137
125 | CAGTGAAA | 0.179

Row | Sequence | PBM E-score
126 | ATGTCTGA | -0.119
127 | AAGCTCGA | -0.0885
128 | ACTGTTAC | -0.255
129 | CTAATTCA | 0.0962
130 | CGTACAAG | 0.227
131 | CGCATGTA | 0.0232
132 | ATGTCGTG | -0.134
133 | AGTTATAA | 0.0453
134 | GGTTTGGA | 0.00126
135 | ACCGCCTA | -0.179
136 | ACAGCACC | -0.019
137 | AGTTATGC | 0.0354
138 | CCATTTTC | 0.121
139 | CATATTAA | 0.109
140 | ACAGCCGG | 0.161
141 | ACCAAGCA | 0.0083
142 | ATACACTC | 0.228
143 | CTCAAGGC | 0.0214
144 | ATGTGCTC | 0.0215
145 | ATCCCATG | -0.207
146 | CAACGTCG | -0.0734
147 | GACGCGGA | 0.136
148 | GTCCTCAA | 0.0371
149 | AATTCTGA | 0.131
150 | CGGGTCCC | -0.319

Row | Sequence | PBM E-score
151 | GTGAGGGA | -0.292
152 | TAAGCACA | 0.267
153 | ATGGAGTA | 0.00168
154 | AGGAGAAC | -0.0809
155 | CGTTGTAC | 0.15
156 | CCGCATAC | 0.237
157 | GGTCAGCA | -0.193
158 | GCGTATAC | 0.127
159 | ATCCAGCA | 0.0312
160 | ATAGGCCC | -0.349
161 | AAGCAATA | 0.0465
162 | AACGGCTA | 0.372
163 | CTCGTCTA | -0.0419
164 | AAGTACAC | 0.145
165 | GTCCTCAC | 0.169
166 | GGCAGAAA | 0.3
167 | CGCTAGTC | -0.302
168 | GACGAACA | 0.084
169 | ATTCAAGA | 0.111
170 | AGTTGGGG | -0.209
171 | CAAAAGGA | 0.0474
172 | CGCACATA | -0.0825
